This note sets out measurements from PubChem BioAssay AID1963576 (National Center for Advancing Translational Sciences (NCATS), 2024).

Screen size: about 46,000 compounds; about 60 (0.1%) were called active. Roughly 3% stayed inconclusive and do not appear here. Calls follow the shape of the dose curve; as a rule, active = well fitted inhibition curve with a large enough effect; inconclusive = small, poorly fitted or top-dose-only effect; inactive = no such curve, though single readings can be large or run the other way. Some of the results follow.

A short description of the assay: Primary qHTS assay for Inhibitors of ovarian cancer metastasis using an organotypic tumor microenvironment (TME) model. Also: nearly all actives have a fitted effect of over 65% in size.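 As to activity change, negative = inhibition: plate controls were DMSO wells for no effect and tomatine positive control wells for full effect.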 The following applies: SKOV3ip1-GFP adhesion/invasion on 3D omental model, fluorescence; series mostly up to 45.8 µM; activity change, negative = inhibition: at the top concentration. The essentials:
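qHTS, 4-pt dose (0.36-46 umol/L); SKOV3ip1-GFP, 1,200 cells/well, no FBS; primary omental fibroblast/mesothelial co-culture 48 h pre-grown; 2 h RT + 16 h 37 C; PBS wash, 4% PFA; GFP count 488/509 nm.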
Background: In qHTS, concentration-response curves come from the screen itself.
In the case of `Cc1ccc(CNC(=O)c2cc3cc(C)ccc3n2C)cc1`, the “activity change, negative = inhibition” value is inactive: -0.574%.
On the same count and under the same terms, next, `COc1ccc(-n2c(=O)c3ccc(C(=O)NCc4ccc(C)cc4)cc3n(CC(=O)Nc3cccc(F)c3)c2=O)cc1`: inactive: -0.836%.
On to `CN(Cc1ccccc1)C(=O)C(=O)Nc1ccc2nc3n(c(=O)c2c1)CCCCC3`, for which the call was inactive.
Same read-out and setting: for `COc1cccc(C(=O)Nc2nc3c(s2)CCCC3)c1` the value was “inactive”; for `COc1ccc(CN2C(=O)N(c3cccc(C)c3)C(=O)C2CC(=O)Nc2ccc(F)cc2)cc1OC` (stereo not drawn), “inactive”.
Regarding `COCCCNC(=O)Cn1c(=O)n(-c2ccccc2)c(=O)c2c1c1cc(OC)ccc1n2C`, the “activity change, negative = inhibition” value is inactive: 2.6%.
On the same count and under the same terms, next, `CCOC(=O)c1cc(NC(=O)c2ccc(C)cc2)c(=O)n2c1oc1ccccc12`: inactive: 33.8%; `CCOc1ccc(C2c3[nH]c4ccccc4c3CCN2C(=O)CSc2ccccc2)cc1` (stereo not drawn): inactive: -8.38%.
With `CCc1c(CN2CCN(c3ccc(F)cc3)CC2)csc1C`, the “activity change, negative = inhibition” value is inactive: -9.65%.
In the case of `COc1ccc(NC(=O)c2sc3nc(C)c(C(=O)Nc4ccc(C)cc4C)c(-c4sccc4C)c3c2N)cc1`, the “activity change, negative = inhibition” value was inactive: 2.25%.
Same read-out and setting: next, `CC(=O)Nc1ccc2nc(SCCOc3ccc(C)cc3)sc2c1`: inactive: 7.45%; `COc1ccc(Nc2ncnc3scc(-c4ccc(F)cc4)c23)cc1`: inactive: -8.07%; `COCCNc1nc2c(S(=O)(=O)c3ccccc3)nnn2c2ccc(Cl)cc12`: inactive: 2.77%.
Regarding `O=C(COc1ccc(Cl)cc1)NCCc1csc(-c2ccc(C(F)(F)F)cc2)n1`, the “activity change, negative = inhibition” value was inactive: 3.66%.
As to `COc1cc2c(cc1NC(=O)COc1cc(C)cc(C)c1)oc1ccccc12`, the “activity change, negative = inhibition” value is inactive: 15.2%.
With `Cc1ccc(CN2CCC(CNC(=O)Nc3ccccc3F)CC2)cc1`, the call was inactive.
Turning to `COc1ccc(C)cc1Nc1nc2c(S(=O)(=O)c3cc(C)ccc3C)nnn2c2ccsc12`, the “activity change, negative = inhibition” value was inactive: 16.8%.
In the case of `CCCCCn1c(=O)[nH]c2cc(C(=O)N3CCN(c4ccc(OC)cc4)CC3)ccc2c1=O`, the “activity change, negative = inhibition” value is inactive: 26.2%.
Still for that read-out and setting: for `COc1ccc(Cn2c(CCC(=O)Nc3ccc(Br)c(C)c3)nc3cccnc32)cc1` the value was inactive: 2.5%; for `CN(C)c1ccc(C(=O)Nc2sc(Nc3ccccc3)nc2C(N)=O)cc1`, inactive: 21.9%.
Regarding `Cc1oc2c(cc(NS(=O)(=O)c3ccc(Br)cc3)c3ccccc32)c1C(=O)OCc1ccccc1`, the call was inactive.
On to `O=C(Cn1ncn2c(cc3cc(F)ccc32)c1=O)NC1CCCCC1`, for which the “activity change, negative = inhibition” value is inactive: -1.1%.
As for `Cc1ccc(NC(=O)CN(C)S(=O)(=O)c2cccc3cccnc23)c(C)c1`, the “activity change, negative = inhibition” value is inactive: 14.4%.
On the same count and under the same terms, for `CCOC(=O)C1CCC(CN(Cc2ccc(OC)cc2)S(=O)(=O)c2ccc(C)cc2)CC1` (stereo not drawn) the value was inactive: 0.637%.
On to `CCc1ccc(CN(Cc2ccco2)c2cnc(S(C)(=O)=O)nc2C(=O)Nc2ccc(C)c(Cl)c2)cc1`, for which the “activity change, negative = inhibition” value was inactive: 2.69%.
Take `CCCC(=O)Oc1c(Sc2ccc(C)cc2)c(C)nn1-c1ccccc1`: the “activity change, negative = inhibition” value is inactive: -6.86%.
Same read-out and setting: for `O=C(Nc1cc(Cl)cc(Cl)c1)c1ccc(F)c(S(=O)(=O)N2CCCC2)c1` the value was inactive: -9.49%.
For the compound `COc1cc(OC)c(C(=O)NCc2nc(-c3ccccc3)no2)cc1OC`, the outcome was inactive.
For the compound `CC1Cc2cc(S(=O)(=O)CCC(=O)Nc3cccc(F)c3)ccc2N1C(=O)C1CC1` (stereo not drawn), the “activity change, negative = inhibition” value is inactive: -6.63%.
Same read-out and setting: for `CC(=O)Nc1ccc(S(=O)(=O)N2CCC(N3CCN(Cc4ccc(C)cc4)C(=O)C3=O)CC2)cc1` the value was inactive: 3.29%; for `Cc1cc(C)cc(NS(=O)(=O)c2cc3[nH]c(=O)c(=O)[nH]c3cc2C)c1`, inactive: 0.461%.
Regarding `O=C(Cn1nnc(-c2ccc(C(F)(F)F)cc2)n1)NCCc1ccccc1`, the outcome was inactive.
As to `CCC(Sc1nc2cc3c(cc2c(=O)n1CCCCCC(=O)NCc1ccc2c(c1)OCO2)OCO3)C(=O)NCCCOC` (stereo not drawn), the “activity change, negative = inhibition” value was inactive: -0.256%.
Still for that read-out and setting: for `COc1ccc(CCNC(=O)C(=O)NCC(c2ccco2)S(=O)(=O)c2cccs2)cc1` (stereo not drawn) the value was inactive: 8.31%; for `Cc1cccc(OCCn2c(SCC(N)=O)nc3ccccc32)c1`, inactive: -1.57%.
Regarding `CCc1noc(-c2ccc(N3CCC(C)CC3)c([N+](=O)[O-])c2)n1`, the result was inactive.
Regarding `Cc1nn2c(=O)cc(COC(=O)c3ccc(NC(=O)CCc4ccccc4)cc3)nc2s1`, the “activity change, negative = inhibition” value is inactive: -5.17%.
As to `O=C(CN1C(=O)c2cccnc2Oc2ccc(Cl)cc21)NCCCN1CCCCC1`, the “activity change, negative = inhibition” value is inactive: -2.39%.
Turning to `COc1cc2c(C(=O)N3CCN(c4cccc(Cl)c4)CC3)cn(C)c(=O)c2cc1OC`, the “activity change, negative = inhibition” value is inactive: -42.7%.
Regarding `O=C(Nc1cccc(Br)c1)Nc1nc2c(s1)CCCCCC2`, the “activity change, negative = inhibition” value is inactive: -19.1%.
`Cc1c(Cl)cccc1NC(=O)c1cc(-c2cccc(Cl)c2)on1`: the “activity change, negative = inhibition” value is inactive: -20.2%.
For `CC(C)C(=O)Nc1ccccc1C(=O)OCc1cc(=O)n2nc(C3CC3)sc2n1`, the “activity change, negative = inhibition” value was inactive: -2.3%.
The same measure, in the same setting: next, `Cc1cccn2c(=O)c3cc(C(=O)NC(C)C)n(C)c3nc12`: inactive: 2.72%.
Same read-out and setting: next, `O=C(Nc1ccc2nc(SCCOc3ccccc3)sc2c1)c1ccco1`: inactive: -10.3%.
Turning to `CCOc1ccc(NC(=O)NC(C)c2c(-n3cccc3)sc3c2CCN(CC)C3)cc1` (stereo not drawn), the outcome was inactive.
For the compound `COc1cccc(CCNC(=O)c2ccc(Cn3c(SCc4ccccc4)nc4cccnc43)cc2)c1`, the “activity change, negative = inhibition” value is inactive: 0.038%.
Same read-out and setting: next, `COc1ccc(NC(=O)c2cnc(N3CCOCC3)c3ccccc23)cc1OC`: inactive: 2.29%.
Take `Cc1ccn2c(c1)nc(=O)c1cc(S(=O)(=O)N3CCCCC3)ccc12`: the “activity change, negative = inhibition” value was inactive: -7.05%.
